According to publication PMC4336329 (PLoS ONE, 2015):
In all, about 310,000 compounds went through this assay and about 2,200 (0.71%) showed an effect of 50% or more. The effect is printed as a negative number. Some of the results follow.

What follows are molecules tested against human ether-à-go-go-related gene (hERG) potassium channel (human, UniProt Q12809) (assay: primary screen, population patch clamp on CHO cells stably expressing hERG).
Chain of human ether-à-go-go-related gene (hERG) potassium channel (Q12809 whole entry, looked up): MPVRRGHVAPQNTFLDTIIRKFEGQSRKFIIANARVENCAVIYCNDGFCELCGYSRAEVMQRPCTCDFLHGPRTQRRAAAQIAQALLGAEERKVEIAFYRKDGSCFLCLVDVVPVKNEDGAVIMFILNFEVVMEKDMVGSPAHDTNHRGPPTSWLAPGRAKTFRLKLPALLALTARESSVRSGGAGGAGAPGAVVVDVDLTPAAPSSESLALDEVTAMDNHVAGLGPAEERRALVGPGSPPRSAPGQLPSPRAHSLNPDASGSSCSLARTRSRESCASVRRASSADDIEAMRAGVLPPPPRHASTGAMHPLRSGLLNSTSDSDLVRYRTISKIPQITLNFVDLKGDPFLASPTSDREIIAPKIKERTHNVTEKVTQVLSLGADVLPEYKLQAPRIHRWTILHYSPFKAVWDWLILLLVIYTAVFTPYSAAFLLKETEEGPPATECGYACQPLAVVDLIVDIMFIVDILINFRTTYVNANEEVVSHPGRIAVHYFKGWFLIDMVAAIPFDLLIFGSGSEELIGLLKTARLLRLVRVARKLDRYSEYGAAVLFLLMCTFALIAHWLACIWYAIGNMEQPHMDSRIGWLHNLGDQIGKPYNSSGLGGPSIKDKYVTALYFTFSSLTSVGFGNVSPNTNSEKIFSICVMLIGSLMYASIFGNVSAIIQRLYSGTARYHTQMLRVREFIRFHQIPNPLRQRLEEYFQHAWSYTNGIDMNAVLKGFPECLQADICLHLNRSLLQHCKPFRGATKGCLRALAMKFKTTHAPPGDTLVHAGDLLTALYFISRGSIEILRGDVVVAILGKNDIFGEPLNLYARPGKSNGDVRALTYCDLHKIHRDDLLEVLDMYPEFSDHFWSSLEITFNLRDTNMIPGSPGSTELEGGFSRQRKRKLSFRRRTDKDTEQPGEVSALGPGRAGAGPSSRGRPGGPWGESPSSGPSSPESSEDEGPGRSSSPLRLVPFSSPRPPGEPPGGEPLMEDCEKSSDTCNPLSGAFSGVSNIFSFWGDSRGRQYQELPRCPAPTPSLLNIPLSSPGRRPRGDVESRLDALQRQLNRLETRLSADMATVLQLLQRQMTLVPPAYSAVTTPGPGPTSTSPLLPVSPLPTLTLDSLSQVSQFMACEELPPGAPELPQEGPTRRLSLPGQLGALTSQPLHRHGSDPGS

SMILES | hERG current change (%, negative = inhibition) at 1uM
COCC(C)N=C1SCCN1Cc1ccccc1 (centres unmarked) | 19%
Cc1cccc(NCC(=O)NNC(=S)Nc2ccccc2)c1 | 13%
O=C(NC(=S)N1CCCc2ccccc21)c1ccc(Br)cc1 | 12.7%
Nn1c(SCC(=O)NC2CCCCC2)nnc1-c1ccc(Cl)cc1 | 9.07%
CC[N+](CC)(CC#CCO)CC#Cc1ccccc1.[Br-] | 23.4%
Cc1noc(NS(=O)(=O)c2ccc(N3CC(O)=C(c4ccccc4)C3=N)cc2)c1C | 19.3%
CNc1c(NS(=O)(=O)c2ccc(C3CCCCC3)cc2)c(=O)oc2ccccc12 | 13.3%
COc1cccc(C2c3[nH]c4ccccc4c3C[C@H]3C(=O)N(CCCOC(C)C)CC(=O)N23)c1 (some centres unmarked) | 17.2%
COc1cc2c(cc1OC)C(c1cc(OC)c(OC)cc1[N+](=O)[O-])N(C(C)=O)CC2 (centres unmarked) | 10.4%
NNC(=O)c1cccc(COc2cccc(Br)c2)c1 | 2.35%
O=C(Nc1ccc2c(c1)OCO2)C1CCCN1C(=O)Nc1ccccc1 (centres unmarked) | 12.7%
COc1ccc(NC(=O)C2Cc3ccccc3CN2C(=O)c2ccco2)cc1 (centres unmarked) | 12.9%
CC(C(=O)c1c[nH]c2ccccc12)N1CCSCC1 (centres unmarked) | -1.5%
CCOc1cc(C2Nc3cccc4cccc(c34)N2)ccc1O | 8.31%
CCCn1nc(C(=O)Nc2nc3ccccc3[nH]2)c2ccccc2c1=O | -7.23%
CCN(CC)S(=O)(=O)c1ccc(N2CCCC2)c(NC(=O)Cc2ccc(OC)cc2)c1 | 8.62%
O=C1NC2(CCCCC2)C(=O)N1c1cccc(Cl)c1 | 16%
Cc1[nH]c(=O)[nH]c(=O)c1S(=O)(=O)Nc1ccc(Cl)c([N+](=O)[O-])c1 | 9.99%
CNC(=O)C1CC(=O)N(CCc2ccc(OC)cc2)C(=Nc2ccc(OC)cc2)S1 (centres unmarked) | 7.43%
COc1ccc(-c2cc(-c3cccs3)c(C#N)c(SCC(=O)NCc3ccco3)n2)cc1 | 7.86%
Cc1ccc2oc3nc(C)c(C(=O)O)cc3c(=O)c2c1 | 4.27%
Cc1c(-c2ccccc2)oc2c(C(=O)N3CCN(c4ccccc4F)CC3)cccc2c1=O | 3.43%
COc1ccc(CNC(=O)COC(=O)c2c[nH]c(=O)[nH]c2=O)cc1OC | 6.32%

SMILES | hERG current change (%, negative = inhibition) at 1uM
CCc1c(C)nn(C(=O)/C(C#N)=C\N(C)C)c1C | 0.484%
O=C(c1cc(=O)[nH]c2ccccc12)N(Cc1nnc(-c2ccccc2Cl)o1)C1CC1 | 9.28%
COc1ccccc1NC(=O)NNC(=O)CCc1ccccc1 | 5.08%
COc1ccc(N2CCN(C(=O)CN3C(=O)NC(C)(c4ccc5ccccc5c4)C3=O)CC2)cc1 (centres unmarked) | 9.62%
COc1ccc(C(CC(=O)O)N2Cc3ccccc3C2=O)cc1 (centres unmarked) | 11.3%
COc1ccc(NC(C#N)c2ccc(OC)cc2)cc1 (centres unmarked) | 17.2%
CC(=O)Nc1cccc(NC(=O)c2cc(Cl)ccc2Cl)c1 | 11.7%
COC(=O)c1[nH]c2ccccc2c1NC(=O)c1c(F)cccc1F | 14.4%
COc1cc(/C=C2/SC(=NCc3ccccc3)N(Cc3ccccc3)C2=O)ccc1O | 11.1%
CN(C(=O)c1ccc(Oc2ccc([N+](=O)[O-])cc2)cc1)C1CCCCC1 | 7.52%
O=C(/C=C/Sc1ccc(C(F)(F)F)cn1)c1ccccc1 | 12.8%
O=C(/C=C/c1cccc(Br)c1)Nc1nn[nH]n1 | 11.9%
Cc1c(/C=N/NC(=O)CNc2ccccc2)c2ccccn2c1C(=O)c1ccncc1 | 12.8%
CCC(=O)c1c[nH]c(C(=O)NCCc2ccccn2)c1 | 9.21%
CCC(C)NC(=O)c1cc(-c2ccc3c(c2)OCO3)on1 (centres unmarked) | 11.4%
O=C(OCc1ccc([N+](=O)[O-])cc1)C1CCN(S(=O)(=O)c2ccccc2)CC1 | -9.16%
CCOC(=O)c1[nH]ncc1CN1CCCC(C(=O)c2cccc3ccccc23)C1 (centres unmarked) | -8.28%
Cc1nc2ccc(Br)cc2c(-c2ccccc2)c1C(=O)O | 19.2%
CNC(=S)Nc1ccccc1-c1ccccc1 | 3.73%
COc1ccc(C(=O)C2CCCN(C(=O)c3cccnc3OC)C2)c(C)c1 (centres unmarked) | 3.09%
Fc1ccc(CNCCc2c[nH]c3ccccc23)cc1 | 14.2%
Cc1csc(NC(=O)C2CCN(C(=O)c3ccccc3C)CC2)n1 | 19.7%
Cc1ccccc1OCc1n[nH]c(=S)n1-c1ccccc1 | 2.04%

SMILES | hERG current change (%, negative = inhibition) at 1uM
COc1ccc(NS(=O)(=O)c2cc(NC(=O)c3ccc(=O)[nH]c3)ccc2N2CCCC2)cc1 | 9.5%
O=C(CC1Sc2ccccc2NC1=O)NCc1ccccc1 (centres unmarked) | 7.73%
Cc1c(NS(=O)(=O)c2cccc3nsnc23)c(=O)n(-c2ccccc2)n1C | 10.2%
COc1ccc(NC(=O)CN(C)S(=O)(=O)c2ccc3c(c2)NC(=O)CS3)cc1 | 4.63%
Nn1c(SCc2cn3ccsc3n2)nnc1-c1ccncc1 | 8.08%
COc1ccc(OC)c(C2Nc3c(Cl)ccc(C(=O)O)c3C3C=CCC32)c1 (centres unmarked) | 6.06%
O=C(Nn1cnnc1)C1CCCN1S(=O)(=O)c1ccc(F)cc1 (centres unmarked) | 12.9%
COCCn1c(N)c(Sc2ccccc2)c(=O)[nH]c1=O | 12.5%
COc1cccc(CCNCc2c(F)cccc2F)c1.O=C(O)C(=O)O | 0.781%
O=c1onc(-c2ccc(Cl)cc2)n1Cc1ccc(F)cc1 | -1.5%
COC(=O)CN1C(=S)N(c2ccccc2)C(=O)C1CC(=O)Nc1ccc(Cl)cc1 (centres unmarked) | 6.72%
CCOc1ccc(-c2nc(CSCC(=O)NCC3CCCO3)c(C)o2)cc1 (centres unmarked) | 13.9%
COc1ccc(C(O)P(=O)(OCC(C)C)OCC(C)C)c(OC)c1 (centres unmarked) | 17.7%
O=c1c2ccccc2n2c(-c3cccc(F)c3)nnc2n1Cc1ccccc1 | 15.8%
Cc1c(CNC2CCC(C)CC2)c(C(=O)O)c(C)n1Cc1ccccc1 (centres unmarked) | 3.4%
Cc1cccc(C)c1OCC(=O)Nn1c(=O)[nH]c2ccccc2c1=O | 11.1%
CCn1c(SCC(=O)Nc2nc(-c3ccccc3)cs2)nnc1-c1ccccc1O | 0.762%
CCOC(=O)C1=C(C)N(CCCC(=O)O)C(=O)NC1C(CC)CC (centres unmarked) | 15.3%
COc1cc(C(=O)NC(=S)Nc2ccc(Cl)cn2)cc(OC)c1OC | 12.2%
CCc1ccc(NC(=O)C2=CC(c3ccc(OC)cc3)=NS(=O)(=O)N2C)cc1 | -2.78%
O=c1[nH]ncc2c3ccccc3n(Cc3ccccc3F)c12 | 5.16%
O=C(COC(=O)/C=C/c1cccc(Cl)c1)NCCc1ccc(Cl)cc1Cl | 11.6%
N#C/C(=C\c1ccc(Sc2ccccc2)o1)c1nc2ccccc2[nH]1 | 9.78%

SMILES | hERG current change (%, negative = inhibition) at 1uM
COc1ccc(OC)c(CN2CCC(C(=O)N3CCN(c4ccccc4F)CC3)CC2)c1.O=C(O)C(=O)O | -10.6%
CCOC(=O)c1csc(NC(=O)c2cc(OC)c(OC)c(OC)c2)n1 | -1.61%
CCCCCCOc1ccc(OCC(O)CN2C(=O)NC(C)(C)C2=O)cc1 (centres unmarked) | 14.4%
O=C(NNC(=O)c1ccc(Cl)c(Cl)c1)c1cccnc1 | 5.03%
Cc1cccc(OCC(=O)NCCN2CCOCC2)c1 | 2.51%
Cn1c(Cc2ccccc2)nnc1SCc1nc2ccccc2c(=O)[nH]1 | 6.64%
COc1ccc(S(=O)(=O)N2CCOCC2)cc1NC(=O)c1cc2c(s1)CCCC2 | 11.4%
COc1cc(NC2c3ccccc3C(=O)N2Cc2ccccc2)cc(OC)c1OC (centres unmarked) | 5.81%
C=CCN(c1ccccc1)S(=O)(=O)c1ccc2c(c1)NC(=O)C(C)S2 (centres unmarked) | 5.69%
COc1ccc(Br)cc1C1Nc2ccccc2C(=O)N1NC(=O)c1ccncc1 (centres unmarked) | 1.64%
Cc1ccccc1N1CCN(C(=O)C2CCCCC2)CC1 | 13.6%
CCOc1ccc(OCCOc2ccc(/C=C/C(=O)O)cc2OCC)cc1 | 5.98%
O=C(COc1ccc(Br)cc1Br)NNC(=O)c1cccs1 | 9.74%
Cc1ccc(N)c2c1OCCC2=O | 14%
CC1(C)CC(=O)C2=C(C1)NC(=O)CC2c1cc(F)ccc1F (centres unmarked) | -1.49%
COc1ccc([N+](=O)[O-])cc1NC(=O)c1cccs1 | 13.4%
CSCC[C@H](NC(=O)C1CCN(S(=O)(=O)c2ccccc2)CC1)C(=O)NC1CC1 | 13.8%
O=C(CSc1nc(-c2ccco2)cc(C(F)(F)F)n1)N1CCN(c2ccc(Cl)cc2)CC1 | 8.68%
Cc1ccc(C)c(NC(=O)CSc2c(C)n[nH]c2C)c1 | 14.9%
COc1ccc(NS(=O)(=O)c2cccc(C(=O)NNC(=O)NCCCl)c2)cc1 | 12.7%
